The supplement of paper PMC10126150
Values marked as one replicate rest on one cluster of the flow cell; about a third of the high ones do not repeat.
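Further: ATP exposure 15 min at 22 °C before imaging.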

These sequences were tested on ATP (assay: switch fluorescence ratio, 500 uM ATP over buffer (Cy3 cluster intensity, sum of 5 cycles each) (fold (ratio)); higher = stronger signal-on switching upon ATP binding; sequences stand for … in TCGTCGGCAGCGTCAGATGTGTATAAGAGACAGTTTTTTTTTTTTTTTTTTTTTTTTT…TC). Conditions: aptamer strand: ATP DNA aptamer (quencher-CACCTGGGGGAGTATTGCGGAGGAAGG + anchor), 100 nM annealed; ATP concentration: 500 uM; one replicate.
Summary of the method: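 Clusters with intensities outside 100-1000 RFU were excluded. The remaining Cy3-labelled switching-strand clusters on a modified Illumina MiSeq flow-cell had been annealed to 100 nM quencher-labelled ATP aptamer and imaged in selection buffer, then after 15 min with 500 uM ATP at 22 °C, for five cycles separated by NaOH stripping and re-annealing. The fluorescence ratio, averaged per switch-domain sequence, is each cluster's summed target-cycle Cy3 intensity over its summed buffer-cycle Cy3 intensity.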
TATGCGGTCG was tested, and the switch fluorescence ratio was 1.06. ATCCAACGA gave a switch fluorescence ratio of 0.962. With AAGGGGCCCA the switch fluorescence ratio was 1.05. In the case of AGTTGTAACC, the switch fluorescence ratio is reported as 1.01. For CCAAGCTGAG, the switch fluorescence ratio was 1.15. For TTTACGGAA, the switch fluorescence ratio was 1.06. With GGGATCTGCT the switch fluorescence ratio was 1.01. AACGGTGATG showed a switch fluorescence ratio of 0.967. For TGTCACTTGG, the switch fluorescence ratio was 1. AGGATTATGA gave a switch fluorescence ratio of 0.967. For TCTGGAAAGA, the switch fluorescence ratio was 0.962. With TTAGAAGAAT the switch fluorescence ratio was 0.972. With GGGAGATTC the switch fluorescence ratio was 1.04. With ATTTTGACCG the switch fluorescence ratio was 1.08. CACGAGACTG gave a switch fluorescence ratio of 1.19. For GTTCAAGGAG, the switch fluorescence ratio was 1. Work on TTGAGTGTAA yielded a switch fluorescence ratio of 1.04. Work on GGTAATTTT yielded a switch fluorescence ratio of 0.993. AAGCCCGTGC gave a switch fluorescence ratio of 0.931. With CCGGAATTTT the switch fluorescence ratio was 1.11. Work on TGTGGTAGTA yielded a switch fluorescence ratio of 1.02. TAACTTAGGT showed a switch fluorescence ratio of 0.976. TTGTGGCGCA gave a switch fluorescence ratio of 0.971. TTAAACGCTC was tested, and the switch fluorescence ratio was 1.11. In the case of ATGAAGCCGT, the switch fluorescence ratio is reported as 1.16. CCGAGAGTTC was tested, and the switch fluorescence ratio was 1.25. Sequence CCAGTCGATA has a switch fluorescence ratio of 1.07. CTACTAACA showed a switch fluorescence ratio of 1.15. Sequence CGAGGTACCG has a switch fluorescence ratio of 0.826. TTAGAAGCTG gave a switch fluorescence ratio of 1.06. For AACCTATGGC, the switch fluorescence ratio was 1.07. For GCGTTCGCCT, the switch fluorescence ratio was 0.964. CGGGGATCCG gave a switch fluorescence ratio of 0.984. GTGAAATTGC gave a switch fluorescence ratio of 0.931. TCGGCGTGTG showed a switch fluorescence ratio of 1.06. TGAGGGTTC gave a switch fluorescence ratio of 0.986. For AGGTTGAGTC, the switch fluorescence ratio was 0.962. In the case of TGCCCGGCTG, the switch fluorescence ratio is reported as 1.01. TTAATGAGCA showed a switch fluorescence ratio of 1.02. Work on CGTTTATGTC yielded a switch fluorescence ratio of 0.987. Work on GGGGTAATAA yielded a switch fluorescence ratio of 1.52. Work on GGCATCGCAA yielded a switch fluorescence ratio of 1.61. For AGGGCGGA, the switch fluorescence ratio was 1.03. With CGAATACC the switch fluorescence ratio was 1.12. With TGCAGTGCAG the switch fluorescence ratio was 0.969. Sequence GGGCCGTCAT has a switch fluorescence ratio of 1.01. TACCCTCTT showed a switch fluorescence ratio of 0.985. With TTATGAGGAG the switch fluorescence ratio was 0.989. Sequence TAATCCCTCC has a switch fluorescence ratio of 1.16. In the case of GCAATCGGTT, the switch fluorescence ratio is reported as 1.11. In the case of TTCGAGCTTA, the switch fluorescence ratio is reported as 1.06. Work on CGCTGTATGC yielded a switch fluorescence ratio of 1.13. ACTGTATACA showed a switch fluorescence ratio of 1.17. In the case of TGTGGTCGGC, the switch fluorescence ratio is reported as 1.05. With TGTGTACCGT the switch fluorescence ratio was 0.949. TAGTTCTTTA showed a switch fluorescence ratio of 1.03. CGCTTCATAG showed a switch fluorescence ratio of 1.17. In the case of TCGCTACCTC, the switch fluorescence ratio is reported as 1.85. With CCGCGACTCT the switch fluorescence ratio was 3.23. ATGCGTACGG gave a switch fluorescence ratio of 1.07. For AAACAATCGT, the switch fluorescence ratio was 0.98. With GAAGGGATAG the switch fluorescence ratio was 1.03. In the case of TAGGGTGACA, the switch fluorescence ratio is reported as 1.01. With CTTGAGTACG the switch fluorescence ratio was 1.03. In the case of TACGCTTTGC, the switch fluorescence ratio is reported as 1.19. ATAGCGTGTG showed a switch fluorescence ratio of 1.03. Sequence ATCTATAGA has a switch fluorescence ratio of 1. Sequence TTATGGGTTA has a switch fluorescence ratio of 1.02. ATAGTTGAAC gave a switch fluorescence ratio of 1.02. Work on GGTAGCATTA yielded a switch fluorescence ratio of 1.03. Sequence AGCGTCTGAG has a switch fluorescence ratio of 0.965. TATGAACCCT showed a switch fluorescence ratio of 1.08. TACGATCATC was tested, and the switch fluorescence ratio was 1.02. GACGACAATA showed a switch fluorescence ratio of 4.79. GCTTTCATGG was tested, and the switch fluorescence ratio was 0.972. In the case of AGCGTTAT, the switch fluorescence ratio is reported as 1.01. In the case of GGAGATTAGT, the switch fluorescence ratio is reported as 0.972. In the case of GTAGTAGGCA, the switch fluorescence ratio is reported as 0.972. For AAGGACCATG, the switch fluorescence ratio was 0.985. For TAACACGCAA, the switch fluorescence ratio was 3.29. ATGTAGACGC was tested, and the switch fluorescence ratio was 0.963. GAAAGGACAG gave a switch fluorescence ratio of 0.983. For ACGACAATTA, the switch fluorescence ratio was 1.26. With CCCTCGTATC the switch fluorescence ratio was 1.35. With CGTACTGTTG the switch fluorescence ratio was 1.01. GGCCCGTATG showed a switch fluorescence ratio of 1.03. Sequence GTGCCGAAAA has a switch fluorescence ratio of 0.971. AGAGGATTCA was tested, and the switch fluorescence ratio was 1.01. TAAATGAGGC was tested, and the switch fluorescence ratio was 1. Sequence TAGACATGTA has a switch fluorescence ratio of 1.02. In the case of TGGTGTGGCT, the switch fluorescence ratio is reported as 1.02. Work on GGTTCGCGTG yielded a switch fluorescence ratio of 0.954. AATGGAAGTA was tested, and the switch fluorescence ratio was 1.03. Sequence AGCAGGCTAA has a switch fluorescence ratio of 1.02. TCACTAATTG was tested, and the switch fluorescence ratio was 0.968. Sequence TAGCAACGTC has a switch fluorescence ratio of 0.895. For CTGGTCAGTT, the switch fluorescence ratio was 0.965. In the case of TTTATAGGAT, the switch fluorescence ratio is reported as 0.977. In the case of GCATGTTGCG, the switch fluorescence ratio is reported as 0.993. Sequence CATCGTCATT has a switch fluorescence ratio of 1.05. TAGCAAAGG gave a switch fluorescence ratio of 1.12. Work on CTAATCTTTT yielded a switch fluorescence ratio of 0.97. AAAGTTACCG was tested, and the switch fluorescence ratio was 1.08. In the case of TTGTCCCGGC, the switch fluorescence ratio is reported as 0.976. In the case of GCGATCGGTA, the switch fluorescence ratio is reported as 0.979. CACACGATTA gave a switch fluorescence ratio of 1.1. With CACGAAAATA the switch fluorescence ratio was 1.73. For GTGTAGGGGG, the switch fluorescence ratio was 0.987. With GGATGCCGGT the switch fluorescence ratio was 1. Work on AGCAAGATGG yielded a switch fluorescence ratio of 1.12. With TCAGTCATAT the switch fluorescence ratio was 0.973. Work on TGTTTCGTCC yielded a switch fluorescence ratio of 1.03. For TATCATGAAA, the switch fluorescence ratio was 1.02. GCCTCAAAGC gave a switch fluorescence ratio of 1.01. In the case of ATTAGGGGCT, the switch fluorescence ratio is reported as 0.976. Sequence TTACAGGCGT has a switch fluorescence ratio of 0.99. Work on GCACATCAAG yielded a switch fluorescence ratio of 1.03. Work on CGGCGCTCGC yielded a switch fluorescence ratio of 1.07. Work on CTAAGTGAT yielded a switch fluorescence ratio of 1.01. Sequence CTTTTGGGAT has a switch fluorescence ratio of 1.01. CCGGATTGGC showed a switch fluorescence ratio of 1.12. Work on GGTTGTGCCC yielded a switch fluorescence ratio of 0.956. TTAGATCCTG was tested, and the switch fluorescence ratio was 1.03. TATATACCGT was tested, and the switch fluorescence ratio was 1.06. ATCGCTCAAG was tested, and the switch fluorescence ratio was 1. With GCACGCAAGA the switch fluorescence ratio was 1.65. ACGTTGAGGT was tested, and the switch fluorescence ratio was 1.03. With TCTTTCTGAA the switch fluorescence ratio was 0.97. CCTATTGGCA gave a switch fluorescence ratio of 1.07. Sequence AGGGGACACG has a switch fluorescence ratio of 1.05. GACCTCTTAT showed a switch fluorescence ratio of 0.997. Sequence GACCGGGCAA has a switch fluorescence ratio of 1.05. In the case of ATTTCGGGCA, the switch fluorescence ratio is reported as 0.955. TTCCAGCCGG showed a switch fluorescence ratio of 1. AAGTTAAGAT showed a switch fluorescence ratio of 0.993. For GCTCCTATCT, the switch fluorescence ratio was 1.1. TTCCGAGGAT showed a switch fluorescence ratio of 0.949. Work on AGCGTATTTC yielded a switch fluorescence ratio of 1.01. In the case of CAGTGAAGTA, the switch fluorescence ratio is reported as 1.04. GAAATCAGAT was tested, and the switch fluorescence ratio was 0.981. Work on TTAACATAT yielded a switch fluorescence ratio of 1.04. With GGGGCGGATA the switch fluorescence ratio was 1.01. TTGTTGAAA gave a switch fluorescence ratio of 0.958. With CTCTTGTGTA the switch fluorescence ratio was 1.04. With GCGGGCAGCG the switch fluorescence ratio was 1. Work on AGTCCGCGTT yielded a switch fluorescence ratio of 1.82. With AGTGGAATAA the switch fluorescence ratio was 1.02. In the case of ACGTTAAATA, the switch fluorescence ratio is reported as 1.14. TAAGTGTAGT was tested, and the switch fluorescence ratio was 1.04. In the case of TTCCATTGGC, the switch fluorescence ratio is reported as 0.944. For TTTTTGGTTC, the switch fluorescence ratio was 1.13. With CATATAGGTC the switch fluorescence ratio was 1.03. TATACAGTGA showed a switch fluorescence ratio of 0.937. GCCTAGTTAA showed a switch fluorescence ratio of 0.992. Sequence CCATAGGCCA has a switch fluorescence ratio of 1.04. AACCTCTG gave a switch fluorescence ratio of 1.09. Work on CGGCCCTCTT yielded a switch fluorescence ratio of 0.977.
